Test results taken from patent US20220251207A1 (JIANGSU ALPHAMAB BIOPHARMACEUTICALS, published 2022).

How the values were obtained:
human CTLA4 protein = biological target: T1, human CTLA4 protein (human, UniProt P16410 36-161); assay: assay and target not described in the filing; human CTLA4 presumed
T1 construct: also called hCTLA4; monomeric human CTLA4

[1] = biological target: CTLA4-muFc (fusion protein of human CTLA4 and mouse Fc) (human); assay: BLI (Octet K2); anti-human Fc on AHC sensor, CTLA4-muFc diluted in a gradient as analyte; 1:1 model

Chain of human CTLA4 protein (P16410 other isoform, or with tags, fused parts or gaps limits assumed): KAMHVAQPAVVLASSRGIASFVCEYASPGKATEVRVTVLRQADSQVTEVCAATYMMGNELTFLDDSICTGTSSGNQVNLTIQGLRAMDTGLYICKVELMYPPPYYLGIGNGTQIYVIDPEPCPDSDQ

Row | Binder | EC50 (human CTLA4 protein) | Kd [1]
1 | hu138V2-Ld-Fc (Fc fusion, not shown: 'Ld' in the name is not explained) QVQLVESGGGLVQPGGSLRLSCAASGYANSNTCMGWFRQAPGKERERVAAISGVGTGTYYADSVKGRFTISRDNSKNTLYLQMNSLRAEDTAVYYCAAAPEGRAWCSRDPSGYNYWGQGTLVTVSS[human IgG1 Fc left out here] | 0.0346 mg/L | –
2 | 138-Fc (Fc fusion, also called KN138-Fc) QVQLQESGGGSVQAGGSLTLSCAASGYANSNTCMGWFRQAPGKERERVAAISGVGTGTYYADSVKGRFTISRDNGKNTLFLQMNSLKPEDTAMYYCAAAPEGRAWCSRDPSGYNYWGQGTQVTVSSGS[human IgG1 Fc with changes left out here] | – | 0.0253 µM

Other lines, results leading:

Row | EC50 (human CTLA4 protein) | Kd [1] | Binder
3 | 0.0336 mg/L | – | hu138V4-Ld-Fc (Fc fusion, not shown: 'Ld' in the name is not explained) QVQLVESGGGLVQPGGSLRLSCAASGYANSNTCMGWFRQAPGKGLERVAAISGVGTGTYYADSVKGRFTISRDNSKNTLYLQMNSLRAEDTAVYYCAAAPEGRAWCSRDPSGYNYWGQGTLVTVSS[human IgG1 Fc left out here]
4 | 0.0349 mg/L | – | hu138V3-Ld-Fc (Fc fusion, not shown: 'Ld' in the name is not explained) QVQLVESGGGSVQAGGSLRLSCAASGYANSNTCMGWFRQAPGKGLERVAAISGVGTGTYYADSVKGRFTISRDNSKNTLYLQMNSLRAEDTAVYYCAAAPEGRAWCSRDPSGYNYWGQGTLVTVSS[human IgG1 Fc left out here]
